Here are results for 2 proteins from patent publication US7972854.

For data set [1], the target named is 5-10 (E490K) mutant ZFP/FokI fusion protein.

B1: 5-10 ZFP/FokI fusion protein (wild-type FokI cleavage half-domain) (protein)
chain: MAPKKKRKVGIHGVPAAMAERPFQCRICMRNFSRSDSLSRHIRTHTGEKPFACDICGRKFADSSNRKTHTKIHTGGGGSQKPFQCRICMRNFSRSDSLSVHIRTHTGEKPFACDICGRKFADRSNRITHTKIHLRQKDAARGSQLVKSELEEKKSELRHKLKYVPHEYIELIEIARNSTQDRILEMKVMEFFMKVYGYRGKHLGGSRKPDGAIYTVGSPIDYGVIVDTKAYSGGYNLPIGQADEMQRYVEENQTRNKHINPNEWWKVYPSSVTEFKFLFVSGHFKGNYKAQLTRLNHITNCNGAVLSVEELLIGGEMIKAGTLTLEEVRRKFNNGEINF
As for B1, the DNA cleavage result is reported as “Non-specific”.

B2: 5-8 ZFP/FokI fusion protein (wild-type FokI cleavage half-domain) (protein)
chain: MAPKKKRKVGIHGVPAAMAERPFQCRICMRNFSRSDNLSEHIRTHTGEKPFACDICGRKFARNAHRINHTKIHTGSQKPFQCRICMRNFSRSDTLSEHIRTHTGEKPFACDICGRKFAARSTRTTHTKIHLRQKDAARGSQLVKSELEEKKSELRHKLKYVPHEYIELIEIARNSTQDRILEMKVMEFFMKVYGYRGKHLGGSRKPDGAIYTVGSPIDYGVIVDTKAYSGGYNLPIGQADEMQRYVEENQTRNKHINPNEWWKVYPSSVTEFKFLFVSGHFKGNYKAQLTRLNHITNCNGAVLSVEELLIGGEMIKAGTLTLEEVRRKFNNGEINF
For B2, in data set [1], the DNA cleavage entry was “Specific”.
